Reference: the RNAGym collection of RNA variant scans (doi:10.1101/gad.245936.114)
Variants at the background level are over-represented here.

B1: tRNA (parent)
chain: CUCUCGGUAGCCAAGUUGGUUUAAGGCGCAAGACUUUAAUUUAUCACUACGAAAUCUUGAGAUCGGGCGUUCGACUCGCCCCCGGGAGAUUUUUUCCUCGAGCAA

Variants of: B1
Assay: nonsense suppression (GFP-seq) (ratio to wild type); higher = more function; SUP4oc tRNA, yeast GFP reporter sort-seq
Outline: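 Raffinose/galactose medium with 80 mg/L adenine was used to grow yeast carrying genome-integrated tRNA variants (~3% random-mutation library), RFP, and a galactose-driven GFP ochre reporter. Cells went into GFP/RFP bins, which were Illumina-sequenced, and variants with ≥100 reads and ≥30 cells were scored. Nonsense suppression (GFPSEQ) is the per-bin median GFP/RFP weighted by estimated cell share and expressed relative to the unmutated parent tRNA.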
With G19C A74C the nonsense suppression was ≤ 0.026.
In the case of U20G G69C U70C G86U, the nonsense suppression is reported as ≤ 0.026.
For G19U C29A G59A C75A, the nonsense suppression was ≤ 0.026.
For U20A C29A A87U, the nonsense suppression was ≤ 0.026.
For U20A A89U, the nonsense suppression was ≤ 0.026.
For U20G C83G G86A, the nonsense suppression was ≤ 0.026.
With U20A A24C A30U G84U the nonsense suppression was ≤ 0.026.
For U20G G25A G78A, the nonsense suppression was ≤ 0.026.
For G19C A24G U57A A62C G73A, the nonsense suppression was ≤ 0.026.
In the case of U20G G73A, the nonsense suppression is reported as 0.677.
In the case of G19C A30C U35C G67C A89U, the nonsense suppression is reported as ≤ 0.026.
For G19U G25A U55C U76G C77U, the nonsense suppression was ≤ 0.026.
In the case of G19A U21G C64U, the nonsense suppression is reported as ≤ 0.026.
With G19C C27G C79G the nonsense suppression was ≤ 0.026.
For G19U C79A, the nonsense suppression was ≤ 0.026.
With G19U C79U the nonsense suppression was ≤ 0.026.
In the case of U20A C27G A62C U63C C64A, the nonsense suppression is reported as ≤ 0.026.
In the case of G19A U21G C34U C77A, the nonsense suppression is reported as ≤ 0.026.
In the case of U20C C34U G61C C75U C77G, the nonsense suppression is reported as ≤ 0.026.
In the case of U20A U21C G32C U71C, the nonsense suppression is reported as ≤ 0.026.
For U20G A23U A33G, the nonsense suppression was ≤ 0.026.
In the case of G19U G25A A31G U35G C64G, the nonsense suppression is reported as ≤ 0.026.
In the case of G19U A54C G86A, the nonsense suppression is reported as ≤ 0.026.
With U20G A33U U55G G65C the nonsense suppression was ≤ 0.026.
In the case of G19U U20G G84A, the nonsense suppression is reported as ≤ 0.026.
In the case of U20A A33C C81G, the nonsense suppression is reported as ≤ 0.026.
U20C U22C A54U showed a nonsense suppression of 0.412.
For G19C C77U, the nonsense suppression was ≤ 0.026.
Work on U20C A60G yielded a nonsense suppression of 0.0437.
In the case of G19U U21G C34U, the nonsense suppression is reported as ≤ 0.026.
In the case of G19C G88A, the nonsense suppression is reported as ≤ 0.026.
For U20G U35G, the nonsense suppression was ≤ 0.026.
For G19U A31U C77A, the nonsense suppression was ≤ 0.026.
In the case of G19C G61C C64A, the nonsense suppression is reported as ≤ 0.026.
For U20G G67U, the nonsense suppression was ≤ 0.026.
With U20C U21G C27A G65C C83A the nonsense suppression was ≤ 0.026.
With G19A C72A G86U the nonsense suppression was ≤ 0.026.
With U20A C56A G66A the nonsense suppression was ≤ 0.026.
With U20C U55G A87G the nonsense suppression was ≤ 0.026.
With G19U C34G G61C G69C the nonsense suppression was ≤ 0.026.
With G19A G26C the nonsense suppression was ≤ 0.026.
In the case of U20G A62C C75A G88A, the nonsense suppression is reported as ≤ 0.026.
In the case of U20C G73C G88U, the nonsense suppression is reported as ≤ 0.026.
In the case of U20A G59C, the nonsense suppression is reported as ≤ 0.026.
In the case of G19U A33U C34U A60C G73U C75A, the nonsense suppression is reported as ≤ 0.026.
In the case of G19U G26C, the nonsense suppression is reported as ≤ 0.026.
In the case of G19U G26A, the nonsense suppression is reported as ≤ 0.026.
In the case of G19C A54G G85A, the nonsense suppression is reported as ≤ 0.026.
For U20A G26C A31U C68A, the nonsense suppression was ≤ 0.026.
Work on U20A A31G yielded a nonsense suppression of 0.461.
U20C U35C showed a nonsense suppression of 0.0559.
In the case of G19U C29U C72G A89U, the nonsense suppression is reported as ≤ 0.026.
For U20A U57C G73C C82G, the nonsense suppression was ≤ 0.026.
In the case of U20G A23C C29U U35G U71A, the nonsense suppression is reported as ≤ 0.026.
For U20C A33U, the nonsense suppression was ≤ 0.026.
Work on U20C U63G yielded a nonsense suppression of 0.0493.
With G19A C27A the nonsense suppression was ≤ 0.026.
In the case of G19U A33G C79G, the nonsense suppression is reported as ≤ 0.026.
For G19A U22C A24U U55G G61U A87C, the nonsense suppression was ≤ 0.026.
For G19C G73U, the nonsense suppression was ≤ 0.026.
In the case of G19U G25C G73C, the nonsense suppression is reported as ≤ 0.026.
For U20A A24U G66A, the nonsense suppression was ≤ 0.026.
With U20G G88A the nonsense suppression was ≤ 0.026.
With G19C G25C C83A the nonsense suppression was ≤ 0.026.
With G19A U35A A60G the nonsense suppression was ≤ 0.026.
With U20A C27U the nonsense suppression was ≤ 0.026.
In the case of G19U C81A, the nonsense suppression is reported as ≤ 0.026.
For U20C C56U A89G, the nonsense suppression was ≤ 0.026.
In the case of G19A U20G G25C U35A G59U, the nonsense suppression is reported as ≤ 0.026.
With G19C C75G the nonsense suppression was ≤ 0.026.
In the case of G19C G85C G86A, the nonsense suppression is reported as ≤ 0.026.
In the case of U20C G61U G78C, the nonsense suppression is reported as ≤ 0.026.
For G19C A60U C81U, the nonsense suppression was ≤ 0.026.
With U20A U57G U58C the nonsense suppression was ≤ 0.026.
For G19U G25U G28C C29G A30G C82U, the nonsense suppression was ≤ 0.026.
For G19C G65A, the nonsense suppression was ≤ 0.026.
For G19A U57C, the nonsense suppression was ≤ 0.026.
In the case of G19A U57A, the nonsense suppression is reported as ≤ 0.026.
With G19A G59A C64U the nonsense suppression was ≤ 0.026.
In the case of U20C G88U, the nonsense suppression is reported as ≤ 0.026.
In the case of U20G C56U, the nonsense suppression is reported as 0.148.
With U20C A23U A54G the nonsense suppression was ≤ 0.026.
With U20G U22A C56A A74U the nonsense suppression was ≤ 0.026.
For G19C A33C G61U U71C A74G, the nonsense suppression was ≤ 0.026.
For U20G A74G, the nonsense suppression was ≤ 0.026.
In the case of U20C C68G G84A, the nonsense suppression is reported as ≤ 0.026.
For G19C A30G A60U G66C A74C C75A, the nonsense suppression was ≤ 0.026.
For G19U C29G U55G G85C, the nonsense suppression was ≤ 0.026.
For G19C G73A G86A, the nonsense suppression was ≤ 0.026.
With U20G U22G C27U the nonsense suppression was ≤ 0.026.
For U20A G32U, the nonsense suppression was ≤ 0.026.
For U20A U58G U71A, the nonsense suppression was ≤ 0.026.
In the case of G19C C34A U57C, the nonsense suppression is reported as ≤ 0.026.
For U20G U71C G73A, the nonsense suppression was ≤ 0.026.
For U20G G59C G66A, the nonsense suppression was ≤ 0.026.
With G19C U35C C72U the nonsense suppression was ≤ 0.026.
With G19C U57C the nonsense suppression was ≤ 0.026.
In the case of G19U U22G A30C U57C A87G, the nonsense suppression is reported as ≤ 0.026.
In the case of G19A U20A G84C, the nonsense suppression is reported as ≤ 0.026.
With U20A C68G the nonsense suppression was ≤ 0.026.
For U20A U76A, the nonsense suppression was ≤ 0.026.
With U20A C72U the nonsense suppression was ≤ 0.026.
For U20A C72G, the nonsense suppression was ≤ 0.026.
In the case of G19U U58A, the nonsense suppression is reported as ≤ 0.026.
In the case of U21A, the nonsense suppression is reported as 1.02.
For U20A G86A, the nonsense suppression was ≤ 0.026.
In the case of U20C A31C C79G G85C, the nonsense suppression is reported as ≤ 0.026.
For U20G U58G C68U, the nonsense suppression was ≤ 0.026.
For G19U A60G, the nonsense suppression was ≤ 0.026.
With U20G C29G the nonsense suppression was ≤ 0.026.
For G19C U70C, the nonsense suppression was ≤ 0.026.
In the case of G19A U20G C56A, the nonsense suppression is reported as ≤ 0.026.
With G19A G65C the nonsense suppression was ≤ 0.026.
With G19C G85U the nonsense suppression was ≤ 0.026.
In the case of U20G U76A, the nonsense suppression is reported as ≤ 0.026.
With G19U U55C G67A the nonsense suppression was ≤ 0.026.
With U20A C29G the nonsense suppression was ≤ 0.026.
For G19C U22C G66A, the nonsense suppression was ≤ 0.026.
In the case of U20C C56G G69U U70C, the nonsense suppression is reported as ≤ 0.026.
In the case of G19U G59C, the nonsense suppression is reported as ≤ 0.026.
For G19U G59U, the nonsense suppression was ≤ 0.026.
For G19U C29G G65C, the nonsense suppression was ≤ 0.026.
With G19A C79A the nonsense suppression was ≤ 0.026.
In the case of U20A U63C G88U, the nonsense suppression is reported as ≤ 0.026.
In the case of G19U A31G U57A, the nonsense suppression is reported as ≤ 0.026.
U20C C72G showed a nonsense suppression of 0.063.
For U20A G26A A74U, the nonsense suppression was ≤ 0.026.
With U20G C34G G88U the nonsense suppression was ≤ 0.026.
For U20A C29G C34A, the nonsense suppression was ≤ 0.026.
With G19U A24C G67C C80U C82U the nonsense suppression was ≤ 0.026.
With U20C C77A A87C the nonsense suppression was ≤ 0.026.
In the case of G19U G65U, the nonsense suppression is reported as ≤ 0.026.
With G19A G26A C34G G73C C81A the nonsense suppression was ≤ 0.026.
With U20G U22G the nonsense suppression was 1.06.
For U20C A30U G78U, the nonsense suppression was ≤ 0.026.
With G19U A54U C72U the nonsense suppression was ≤ 0.026.
In the case of G19U U22G U35A G61U C72A, the nonsense suppression is reported as ≤ 0.026.
For U20G G86A, the nonsense suppression was ≤ 0.026.
U20A A87G showed a nonsense suppression of 0.226.
In the case of U20G C34U G84U, the nonsense suppression is reported as ≤ 0.026.
With G19A G32C U55A U71A C80G the nonsense suppression was ≤ 0.026.
In the case of U20C C83G, the nonsense suppression is reported as ≤ 0.026.
U20G U63A showed a nonsense suppression of 1.06.
Variant U20G U63G has a nonsense suppression of 0.495.
With G19C U21C the nonsense suppression was ≤ 0.026.
In the case of U20G A31C G88U, the nonsense suppression is reported as ≤ 0.026.
For U20G A33G, the nonsense suppression was 0.18.
For U20G G85C, the nonsense suppression was 0.0271.
U20G G85U gave a nonsense suppression of 0.81.
For G19U A24G U76G, the nonsense suppression was ≤ 0.026.
Work on U20C U76C yielded a nonsense suppression of 0.228.
With U20C C77U the nonsense suppression was 0.0349.
For G19C C72G, the nonsense suppression was ≤ 0.026.
For G19C G26A, the nonsense suppression was ≤ 0.026.
For U20C G26C U35G C68G, the nonsense suppression was ≤ 0.026.
For U20C G59A C82U, the nonsense suppression was ≤ 0.026.
For U20C C27G C29A G59U C75G, the nonsense suppression was ≤ 0.026.
For U20C G28A U57G C77A, the nonsense suppression was 0.813.
In the case of G19U U71C, the nonsense suppression is reported as ≤ 0.026.
With U20G A23G G25U C56U the nonsense suppression was ≤ 0.026.
With G19U U55C the nonsense suppression was ≤ 0.026.
For G19U A33G C34G U58A G65C U70C U71C, the nonsense suppression was ≤ 0.026.
In the case of U20C U22A C34G A87C, the nonsense suppression is reported as ≤ 0.026.
For U20G A87U, the nonsense suppression was ≤ 0.026.
In the case of U20G U22A G25U G32C C75G G84C, the nonsense suppression is reported as ≤ 0.026.
U20A A60U C79U showed a nonsense suppression of 0.212.
For G19U G32A G61U, the nonsense suppression was ≤ 0.026.
